Laboratory results published in the supplement of paper PMC3334620.
In all, about 33,000 sequences were measured (“E-score (-0.5 to 0.5)”: median about -0.021, highest 2% from about 0.32 on). The list shows a part of the results.

The sequences below were run against T1, Zap1 (UniProt P47043) (assay: PBM E-score (8-mer binding enrichment) (E-score (-0.5 to 0.5)); higher = stronger / more preferred TF binding; most listed sequences are background and not binding sites). Conditions: protein concentration: 200 nM; construct: GST-full length.
T1 sequence: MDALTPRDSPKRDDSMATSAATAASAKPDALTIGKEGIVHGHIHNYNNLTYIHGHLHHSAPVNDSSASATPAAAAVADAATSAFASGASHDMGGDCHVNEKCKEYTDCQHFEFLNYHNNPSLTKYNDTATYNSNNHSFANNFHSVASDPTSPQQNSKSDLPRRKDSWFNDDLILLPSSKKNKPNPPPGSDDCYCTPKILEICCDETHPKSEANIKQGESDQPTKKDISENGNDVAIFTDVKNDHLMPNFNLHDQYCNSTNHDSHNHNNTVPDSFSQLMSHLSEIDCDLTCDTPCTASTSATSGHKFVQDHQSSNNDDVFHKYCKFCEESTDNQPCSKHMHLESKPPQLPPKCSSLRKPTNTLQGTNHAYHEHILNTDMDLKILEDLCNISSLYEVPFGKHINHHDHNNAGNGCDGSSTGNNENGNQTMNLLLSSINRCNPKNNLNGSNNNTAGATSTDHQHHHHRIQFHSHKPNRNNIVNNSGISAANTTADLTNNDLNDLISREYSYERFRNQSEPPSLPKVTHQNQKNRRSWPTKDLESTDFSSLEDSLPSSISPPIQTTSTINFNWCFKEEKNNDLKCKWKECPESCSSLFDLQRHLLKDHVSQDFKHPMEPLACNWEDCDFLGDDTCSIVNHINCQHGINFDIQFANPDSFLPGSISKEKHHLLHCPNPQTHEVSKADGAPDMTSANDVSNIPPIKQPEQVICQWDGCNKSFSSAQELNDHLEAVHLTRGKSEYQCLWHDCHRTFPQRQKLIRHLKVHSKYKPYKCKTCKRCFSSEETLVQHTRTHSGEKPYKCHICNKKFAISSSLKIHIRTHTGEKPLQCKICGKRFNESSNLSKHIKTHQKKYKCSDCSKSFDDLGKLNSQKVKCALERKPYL
Experimental: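 Universal 'all 10-mer' protein binding microarrays (Agilent AMADID 015681) probed with GST-tagged S. cerevisiae TFs (full-length or DBD) made by in vitro transcription/translation (PURExpress), about 100-200 nM. Bound TF was detected with fluorescent anti-GST. Each ungapped 8-mer (which stands for itself and its reverse complement) is scored by the PBM enrichment score (E-score), a modified Wilcoxon-Mann-Whitney statistic from -0.5 to +0.5, computed with the Universal PBM Analysis Suite. Scale: above 0.35 generally sequence-specific binding.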

Sequence | PBM E-score
CATGGCTA | -0.23
AACTCGAA | 0.0717
AGCTCATC | -0.261
CGCAGTAC | -0.0492
GACGGGCA | -0.194
CGTTCAAC | 0.0372
CTTGCTGC | -0.163
GATGCAAC | -0.0942
CTAGATCA | -0.0664
ACCGTGAG | -0.0433
TTAAGGAA | 0.0736
ACACGAAG | 0.094
AGGAAAGG | -0.149
AGTTCCTA | 0.00608
CTCCCAGA | -0.221
ACAGAAGC | -0.00364
GCCATGGC | -0.0165
GAGGGGGA | -0.176
ATACGAAC | -0.0244
AGCACCCA | -0.0894
ACTGATCG | -0.186
GCCTGGGA | -0.14
AAACTACA | 0.0938
CATCGAAC | -0.2
ACGGCAGA | -0.0833

Sequence | PBM E-score
AACTTAGT | -0.0399
ATCATGTG | -0.0397
CGGGATAC | 0.0285
ATAATGCG | 0.0994
GGCTCCCC | 0.0408
AATGAGAA | -0.103
CCTGTACC | -0.0655
CCGACAAC | 0.0322
AGGTGGGC | -0.0375
AACCGTTC | 0.103
ACCCACCT | 0.213
AGTCGAAT | -0.146
CCTGTCAC | -0.0162
ATTTCGTC | 0.113
TATAACAA | 0.291
CCCGAGGG | 0.307
GTGAAGTA | -0.0951
CGGGGAGC | -0.0824
ATTGCACA | 0.0408
CGCACGAC | -0.18
GAGAAGTA | -0.09
CGTCACAG | 0.113
ATAAGCGA | -0.0126
AGTGTGAT | -0.138
ACGCACAC | 0.131

Sequence | PBM E-score
AATAGGTC | 0.162
ACCGATTA | 0.011
GAACAGGC | -0.307
CCTCCGAA | -0.188
CTGATTGA | 0.0661
AATAGCGA | 0.0197
GCCCGGAC | -0.223
AAACCACT | 0.165
ACTCGCTA | -0.0232
AATACCTG | 0.0483
GCACTTCC | -0.192
ATTCCCAC | -0.0158
AATGAGGC | 0.0272
GCAATCAC | -0.0144
TAGGCAAA | -0.0671
AAAGGCGG | -0.0589
ACATTTAA | 0.259
ATGTACGC | -0.153
ACGATATG | 0.0602
GCCCGCAC | -0.202
GCACGGTA | 0.0132
CTGACTCC | -0.289
ACGAGAAC | 0.159
CTCTTAAC | 0.11
AACGCTTG | -0.168

Sequence | PBM E-score
TATCAAGA | 0.0816
ACCTGATC | -0.0818
ACAGAACC | 0.0979
AAACCCTC | 0.175
TGTATAAA | 0.0902
CAGCAACC | 0.0927
TACTATAA | 0.249
ACTCGGAG | -0.136
CCGCTCCG | -0.17
CAGGCGCG | -0.199
AACGATGA | 0.0347
GTTTACGA | 0.0224
ACCCATAT | 0.267
CGAGAGCG | -0.187
CTCGCGCA | -0.194
ACACGCCT | -0.16
AATGCGCG | 0.00966
GTGGTAGA | -0.245
ATCTGCTA | -0.148
ACGTTGAC | -0.164
CAAGGCGG | -0.18
AGAAGCTA | -0.265
ATACCCAA | 0.247
GTCCCCAA | 0.0352
GCAGGTAA | 0.173

Sequence | PBM E-score
AATGGCAC | -0.15
CCGTCGAC | -0.0425
CCCCAGGA | -0.128
GCTGATAC | -0.0997
AATGACCG | 0.216
ACCGGTGG | -0.0578
GGACTCAC | -0.157
CCACAGAC | -0.00747
CGACCCCC | -0.304
GAGGTCAC | 0.392
ACGAAAGC | -0.0332
ATGAACCG | -0.0519
CCCCGAAA | 0.107
ACCTTAAG | 0.269
AATCGTCG | -0.21
TAATCACA | 0.0822
ATGCCCAA | -0.025
ACGCGATC | -0.143
CGAGGACA | -0.0989
AGTCTGAT | -0.0553
GAGACACC | -0.164
GGCTTCAC | -0.346
GCCGATGA | -0.28
CATATAGA | 0.0361
ATCTGGTG | 0.0645

Sequence | PBM E-score
CTAAACGA | 0.0728
CTTCTCGA | -0.17
GGAAAGGA | -0.0553
AAGTGTGT | 0.0267
GACCTAAC | 0.171
AACGCCGG | -0.109
CGTCTATA | -0.122
ACAGTAGT | -0.159
GCGTAGAA | -0.195
CACGACCC | 0.206
ACTGTGTG | -0.0788
AACCTAGT | 0.161
ATTTTTAC | 0.016
AGCTGCTG | -0.194
ATGTTGTA | 0.0198
CCGTCAGA | -0.102
CCGCCGGC | -0.00276
ACTGAAAC | 0.18
CTTTCCCC | -0.0608
ACACAAAA | 0.259
GCAACGTA | -0.0702
GAGGAGTA | -0.119
CACACTTA | -0.0809
AGGCCTGA | -0.151
AGTGGCTG | -0.101

Sequence | PBM E-score
CTATGTAA | 0.0968
ATCGAATG | -0.106
CGATCCAA | -0.00332
AGCACTAT | -0.174
CTAAAAGA | 0.0186
AATAACGC | -0.0593
GCTTATCA | -0.0135
TATATTGA | 0.155
ACAACATC | -0.112
ATCCGATC | 0.0622
CCCTTAAG | 0.335
AGTCTATC | -0.348
CTCGTGGC | 0.0416
CCCCGATA | 0.0649
GGTGAACC | 0.0647
AACGGCCT | -0.0819
CCTAAGTA | 0.214
CCGGTGTA | -0.0602
AGTTAGAA | 0.0791
GGCTAACA | -0.0475
ACTCGTAC | -0.21
ATACCGAC | -0.111
